According to the supplement of paper PMC11417369:
± gives the standard deviation of the averaged measurements. The list shows a part of the results.

tested on: PfAP2-EXP AP2 domain (GST-tagged); assay: gcPBM binding intensity (ln(normalized median fluorescence intensity)); higher = stronger DNA binding
Outline: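 In this array assay, P. falciparum DNA-binding domains with a GST tag, expressed in E. coli, were applied for 1 h to primer-extended double-stranded 36-bp intergenic genomic probes and negative controls on an Agilent 4 × 180k array. Bound protein was visualised with Alexa488 anti-GST antibody at 488 nm. Binding intensity is the highest Masliner-normalised natural-log median intensity across replicate spots of either probe orientation.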

Row | Sequence | gcPBM binding intensity (ln)
1 | TATACATATATAATATGTACATATATTTTTTTTTAA [XGTACX_site2938] | 8.15 ± 0.33
2 | CATAAAAATATTTTCTGTACATATTCATATGACGTT [XGTACX_site3406] | 8.61 ± 0.33
3 | ATAAATAAAATTAGGTGTACTTTAATTAAAGAAAAT [XGTACX_site3319] | 8.84 ± 0.21
4 | AGGTTCCCAAAATGCACACCAATGAAATTATTTATT [CACACA_site553] | 8.49 ± 0.2
5 | ATAAATATTGGGTGCACACACATAATATATATATAT [CACACA_site2272] | 10.1 ± 0.21
6 | AAAATAAAAAATATAACACACAATAAATATATATAT [CACACA_site1926] | 9.485 ± 0.021
7 | TATACAAAATAACTAGCACACATATGTATAAACATA [CACACA_site9236] | 8.77 ± 0.28
8 | GAAAAAAAAAAAAAAAAAAAAAAATTCATTTTTTTT [XGTACX_negctrl_site54] | 7.98 ± 0.49
9 | ATAATCATTTGGATATTCACAATATTTAAAATTAAA [CACACA_negctrl_site909] | 8.06 ± 0.42
10 | ATTTCCTGGCTACTGTGTACTGACCTCCAGACTGCT [XGTACX_site2005] | 8.81 ± 0.55
11 | TTTTAACTTTTATATTGTACGTTGTTTATTTTATTT [XGTACX_site7504] | 8.83 ± 0.47
12 | TTATTTACCATCTCTACACACAAAAATTGATGTAGA [CACACA_site2811] | 8.3 ± 0.3
13 | TCATAATGAAAACAAGCACACATACATAAAATAAAA [CACACA_site9069] | 8.92 ± 0.42
14 | ATATGTATTAAGTGTACACATATAATGTATTTTGTT [CACACA_site4177] | 8.69 ± 0.27
15 | TAAATTATATTATGCACACTTAAAAATATATTTAAC [CACACA_site3512] | 8.49 ± 0.3
16 | GAATCATCCAAAATTGCATGCAAGGAAGAAGAAAAA [TGCATGCA_site764] | 9.975 ± 0.007
17 | TTTTTATATATCACGTGTACATATTTATTTTTACTC [XGTACX_site8049] | 8.8 ± 0.35
18 | ATATGTAATAATAAATGTACGAAACATTGAACGATG [XGTACX_site1266] | 8.91 ± 0.41
19 | TTATAAATATAATATTGTACAAAATTTTAACATGTC [XGTACX_site5259] | 8.59 ± 0.4
20 | CTTATGTGTATAAGTAGTACTAAATTAAAATAATAT [XGTACX_site2681] | 8.61 ± 0.36
21 | AAATCACCTTAAGAACGTACAAACAGAAAAAAATTA [XGTACX_site4623] | 8.78 ± 0.56
22 | TTTATTATATTTATATGTACTTATATAATATATGCA [XGTACX_site1906] | 8.44 ± 0.4

Row | Sequence | gcPBM binding intensity (ln)
23 | CGTATGAAACATATATGTACTTATAAAAATATAACC [XGTACX_site7539] | 8.72 ± 0.38
24 | ATTTTAAATGTTATGCGTACATATTAATCCTACTTA [XGTACX_site1344] | 8.73 ± 0.3
25 | TGTTTGAATAACAAAAAAAAAAAAAAAATTAAAAAA [CACACA_negctrl_site1332] | 8.05 ± 0.4
26 | TTTTAAAAATCTATATGTACACAATACGTCTATAAA [XGTACX_site5787] | 8.62 ± 0.29
27 | TATGAAAATGTTCATACACACATAAAAAAAAAAAAA [CACACA_site3236] | 8.51 ± 0.51
28 | TACACATACACATACACACGCATAGAAACATACGAA [CACACA_site2137] | 8.62 ± 0.47
29 | AAAAAAAAAAAAAACACACAAACGCTTTTTTTTTTT [CACACA_site686] | 8.64 ± 0.38
30 | TACATATTTTTATATACACACAATAATTATTATAAA [CACACA_site1659] | 8.43 ± 0.35
31 | TTTTAAATATGCAGATGTACATTATAATGTTTTATT [XGTACX_site2079] | 8.85 ± 0.4
32 | TATATTTATTATAACACACACATATATATATTATAT [CACACA_site1061] | 8.44 ± 0.26
33 | GATATGTACTAATACACACACATATAGATTTATATA [CACACA_site6610] | 8.56 ± 0.23
34 | AAATATATGAATAAATGTACGAAATGAATGGATGAA [XGTACX_site7108] | 9.11 ± 0.59
35 | TTATAATCTTATATATGTACATATATATATTATTAT [XGTACX_site7780] | 8.38 ± 0.32
36 | AAACATGTATTTTATTGTACACATTCATAAATCACA [XGTACX_site1420] | 8.76 ± 0.37
37 | TACATGTATGTAATATGTTTTATTTTTTTCATCTCT [XGTACX_negctrl_site79] | 8.31 ± 0.4
38 | TTAATTAGAAATCATACACACATATATATATATATA [CACACA_site173] | 10.1 ± 0.4
39 | CATTCAAACAAAAAAAGTACTCATCACATAATATAT [XGTACX_site1251] | 8.51 ± 0.52
40 | TTTATATTGTTTTATTGTACATATATATTTATACAT [XGTACX_site6821] | 8.81 ± 0.4
41 | GCAAAATATTTAAAATAATATATGTGTATATTTTTA [GTGCAC_negctrl_site149] | 7.98 ± 0.41
42 | GAAATGTACAAATACGTACACACATATATATATATA [CACACA_site1541] | 9.93 ± 0.33
43 | AAAAAAAAAAAAAAACTTACGATTTTAAAAAGATGG [GTGCAC_negctrl_site291] | 8.32 ± 0.28
44 | ATATATTTATAATACACATGCAATGATATAATATAT [TGCATGCA_site20] | 8.6 ± 0.3
